No constants are given. Whether binding was seen depends on the method and setting. For part of these data: In cells and extracts the contact can be indirect. Some binding calls cover weakened binding; strength is not graded here. For part of these data: Sequences can lack the tags named with a protein.
Assays:
[1] = biological target: T1, Myc-FXR (Farnesoid X receptor, full length) (human) (UniProt Q96RI1); test: co-IP; HEK293 (legends: HEK293T) cells co-transfected with Myc-FXR or Myc-tagged FXR deletion mutants and HA-β-Catenin or HA-TCF4; lysates precipitated with anti-Myc agarose, blot with anti-HA; lysis buffer 50 mM HEPES pH 7.5, 150 mM NaCl, 1% Triton X-100
T1 sequence: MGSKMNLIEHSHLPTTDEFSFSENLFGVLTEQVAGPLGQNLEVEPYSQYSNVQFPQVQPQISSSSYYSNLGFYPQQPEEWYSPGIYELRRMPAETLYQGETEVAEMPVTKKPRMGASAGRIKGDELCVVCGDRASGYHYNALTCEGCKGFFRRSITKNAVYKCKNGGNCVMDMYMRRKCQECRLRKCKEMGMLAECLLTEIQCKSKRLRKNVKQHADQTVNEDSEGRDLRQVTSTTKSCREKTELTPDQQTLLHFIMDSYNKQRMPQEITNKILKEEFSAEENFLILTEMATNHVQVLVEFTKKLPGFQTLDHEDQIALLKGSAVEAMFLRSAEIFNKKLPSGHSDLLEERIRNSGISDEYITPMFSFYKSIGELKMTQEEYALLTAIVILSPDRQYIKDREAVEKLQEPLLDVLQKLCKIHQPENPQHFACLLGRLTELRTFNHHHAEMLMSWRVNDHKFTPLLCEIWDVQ

Protein sequences, listed by entry. Tags and fused reporters are not part of them.
UniProt P35222: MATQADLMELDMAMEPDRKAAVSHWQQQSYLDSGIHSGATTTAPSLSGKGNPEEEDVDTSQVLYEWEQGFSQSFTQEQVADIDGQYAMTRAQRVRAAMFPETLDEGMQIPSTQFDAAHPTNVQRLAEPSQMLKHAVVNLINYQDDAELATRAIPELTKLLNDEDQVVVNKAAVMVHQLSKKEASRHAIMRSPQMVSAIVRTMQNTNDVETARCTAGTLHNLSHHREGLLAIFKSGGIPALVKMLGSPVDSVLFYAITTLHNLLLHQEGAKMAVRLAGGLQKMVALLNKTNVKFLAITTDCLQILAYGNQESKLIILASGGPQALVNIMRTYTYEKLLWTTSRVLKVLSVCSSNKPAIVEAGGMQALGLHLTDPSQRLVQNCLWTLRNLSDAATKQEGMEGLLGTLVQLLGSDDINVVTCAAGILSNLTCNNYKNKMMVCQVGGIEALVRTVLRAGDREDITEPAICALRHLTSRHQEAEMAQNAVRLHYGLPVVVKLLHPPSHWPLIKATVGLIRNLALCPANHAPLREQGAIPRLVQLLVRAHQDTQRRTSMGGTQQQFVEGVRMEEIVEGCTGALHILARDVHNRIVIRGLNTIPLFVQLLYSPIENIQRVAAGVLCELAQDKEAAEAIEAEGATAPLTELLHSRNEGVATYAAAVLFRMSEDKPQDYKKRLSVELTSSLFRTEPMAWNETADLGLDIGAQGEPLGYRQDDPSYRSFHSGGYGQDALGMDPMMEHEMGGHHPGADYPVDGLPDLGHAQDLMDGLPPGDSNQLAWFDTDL
UniProt Q9NQB0: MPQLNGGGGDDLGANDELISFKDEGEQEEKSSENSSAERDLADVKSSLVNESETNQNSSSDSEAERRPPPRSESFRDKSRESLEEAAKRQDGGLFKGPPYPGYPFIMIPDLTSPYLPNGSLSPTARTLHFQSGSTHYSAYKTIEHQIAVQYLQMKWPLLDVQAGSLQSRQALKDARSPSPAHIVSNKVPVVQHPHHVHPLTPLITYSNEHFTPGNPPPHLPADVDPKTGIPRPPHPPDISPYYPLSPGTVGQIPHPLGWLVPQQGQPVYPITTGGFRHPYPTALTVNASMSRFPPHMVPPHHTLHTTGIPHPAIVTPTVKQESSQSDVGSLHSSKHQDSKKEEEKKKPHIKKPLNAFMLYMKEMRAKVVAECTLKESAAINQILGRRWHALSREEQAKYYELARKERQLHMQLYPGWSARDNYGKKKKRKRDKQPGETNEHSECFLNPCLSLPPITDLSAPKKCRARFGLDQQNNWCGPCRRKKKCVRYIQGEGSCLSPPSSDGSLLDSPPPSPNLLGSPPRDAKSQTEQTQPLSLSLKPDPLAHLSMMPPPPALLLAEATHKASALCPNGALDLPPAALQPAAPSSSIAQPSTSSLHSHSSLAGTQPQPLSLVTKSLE

[2] = biological target: T2, endogenous FXR (human (endogenous in Huh7 and PLC-5)) (UniProt Q96RI1); test: co-IP; endogenous proteins in Huh7 or PLC-5 cell lysates; anti-FXR antibody followed by IgG agarose; bound β-Catenin detected by Western blot
T2 sequence: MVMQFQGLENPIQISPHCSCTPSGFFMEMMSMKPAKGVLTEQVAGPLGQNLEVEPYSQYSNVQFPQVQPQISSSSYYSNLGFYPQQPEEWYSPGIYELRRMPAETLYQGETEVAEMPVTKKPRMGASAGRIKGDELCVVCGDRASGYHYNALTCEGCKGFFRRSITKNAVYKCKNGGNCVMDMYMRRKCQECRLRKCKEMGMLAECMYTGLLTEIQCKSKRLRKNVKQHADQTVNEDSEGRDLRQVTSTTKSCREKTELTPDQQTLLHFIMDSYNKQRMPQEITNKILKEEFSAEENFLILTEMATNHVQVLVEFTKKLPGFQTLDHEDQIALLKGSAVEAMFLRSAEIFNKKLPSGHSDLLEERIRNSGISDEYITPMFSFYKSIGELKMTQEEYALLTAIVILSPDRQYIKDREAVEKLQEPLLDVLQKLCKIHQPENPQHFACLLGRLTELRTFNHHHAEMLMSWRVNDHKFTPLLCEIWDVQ

Myc-FXR(Δ125) (human) = biological target: T3, Myc-FXR(Δ125) (human) (UniProt Q96RI1); test: co-IP; HEK293 (legends: HEK293T) cells co-transfected with Myc-FXR or Myc-tagged FXR deletion mutants and HA-β-Catenin or HA-TCF4; lysates precipitated with anti-Myc agarose, blot with anti-HA; lysis buffer 50 mM HEPES pH 7.5, 150 mM NaCl, 1% Triton X-100
T3 sequence: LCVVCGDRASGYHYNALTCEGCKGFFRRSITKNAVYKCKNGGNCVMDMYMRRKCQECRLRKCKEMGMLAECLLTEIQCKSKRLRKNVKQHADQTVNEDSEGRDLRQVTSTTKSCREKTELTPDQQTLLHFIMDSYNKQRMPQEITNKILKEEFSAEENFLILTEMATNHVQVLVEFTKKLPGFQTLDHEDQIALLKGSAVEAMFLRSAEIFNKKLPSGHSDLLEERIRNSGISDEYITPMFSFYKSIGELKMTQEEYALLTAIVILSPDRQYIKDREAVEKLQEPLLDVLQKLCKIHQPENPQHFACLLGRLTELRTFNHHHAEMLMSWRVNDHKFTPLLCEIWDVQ

Myc-FXR(Δ186) (human) = biological target: T4, Myc-FXR(Δ186) (human) (UniProt Q96RI1); test: as above
T4 sequence: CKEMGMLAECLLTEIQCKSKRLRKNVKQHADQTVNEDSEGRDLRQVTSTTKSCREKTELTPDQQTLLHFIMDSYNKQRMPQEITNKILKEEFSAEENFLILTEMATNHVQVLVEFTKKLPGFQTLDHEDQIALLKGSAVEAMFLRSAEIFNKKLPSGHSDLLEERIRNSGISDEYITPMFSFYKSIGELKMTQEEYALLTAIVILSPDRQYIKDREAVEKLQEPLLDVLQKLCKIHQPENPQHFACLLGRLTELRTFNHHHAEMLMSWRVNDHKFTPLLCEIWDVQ

Myc-FXR(Δ240) (human) = biological target: T5, Myc-FXR(Δ240) (human) (UniProt Q96RI1); test: as above
T5 sequence: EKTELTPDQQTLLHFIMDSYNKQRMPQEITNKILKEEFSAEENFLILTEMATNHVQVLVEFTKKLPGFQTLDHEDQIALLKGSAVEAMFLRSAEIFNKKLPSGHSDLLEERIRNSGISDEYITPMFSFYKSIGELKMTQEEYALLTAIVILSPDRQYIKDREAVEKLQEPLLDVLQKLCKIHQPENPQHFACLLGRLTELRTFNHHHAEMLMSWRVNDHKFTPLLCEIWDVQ

Myc-FXR(ΔAF2) (human) = biological target: T6, Myc-FXR(ΔAF2) (human) (UniProt Q96RI1); test: as above
T6 sequence: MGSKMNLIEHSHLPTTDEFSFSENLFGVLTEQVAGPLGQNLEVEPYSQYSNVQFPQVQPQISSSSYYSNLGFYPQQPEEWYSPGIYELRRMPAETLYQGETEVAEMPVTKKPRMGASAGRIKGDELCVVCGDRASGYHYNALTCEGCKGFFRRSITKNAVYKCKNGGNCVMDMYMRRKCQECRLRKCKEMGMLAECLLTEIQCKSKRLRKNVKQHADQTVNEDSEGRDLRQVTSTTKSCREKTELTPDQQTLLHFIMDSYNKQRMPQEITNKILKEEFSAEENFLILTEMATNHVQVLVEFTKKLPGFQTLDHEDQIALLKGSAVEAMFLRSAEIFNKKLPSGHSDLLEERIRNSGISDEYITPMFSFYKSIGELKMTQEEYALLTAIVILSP

Myc-FXR(ΔC-ter) (human) = biological target: T7, Myc-FXR(ΔC-ter) (human) (UniProt Q96RI1); test: as above
T7 sequence: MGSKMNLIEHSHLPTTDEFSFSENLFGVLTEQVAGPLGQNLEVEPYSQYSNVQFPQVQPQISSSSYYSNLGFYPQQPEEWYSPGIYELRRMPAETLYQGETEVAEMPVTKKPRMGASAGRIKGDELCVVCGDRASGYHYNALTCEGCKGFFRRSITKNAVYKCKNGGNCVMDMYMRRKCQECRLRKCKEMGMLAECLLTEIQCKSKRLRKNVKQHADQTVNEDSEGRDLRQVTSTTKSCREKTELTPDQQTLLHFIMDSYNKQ

GST-β-Catenin = GST-β-Catenin (UniProt P35222); test: pull-down; GST or GST-β-Catenin on glutathione-Sepharose 4B beads, incubated with purified His-FXR at 4°C overnight in 20 mM Tris-HCl pH 7.5, 150 mM NaCl, 0.2% Nonidet P40, 10% glycerol; 6 washes; Western blot; both purified

HA-TCF4 (from UniProt Q9NQB0 1-619)
binding [1]: no binding

endogenous β-Catenin (from UniProt P35222 1-781)
binding [2]: binds

HA-β-Catenin (wild type) (from UniProt P35222 1-781)
binding [1]: binds
binding (Myc-FXR(Δ125) (human)): no binding
binding (Myc-FXR(Δ186) (human)): no binding
binding (Myc-FXR(Δ240) (human)): no binding
binding (Myc-FXR(ΔAF2) (human)): binds
binding (Myc-FXR(ΔC-ter) (human)): binds

B1: His-FXR (protein, UniProt Q96RI1 1-486)
chain: T2 sequence
binding (GST-β-Catenin): binds

Source: publication PMC4414185
